PubChem BioAssay AID651820 (National Center for Advancing Translational Sciences (NCATS), 2012)
Among all 340,000 compounds or so, about 12,000 (3.5%) were called active. The inconclusive results got no clear call from the source; some entries with a clear call stand among them for comparison. Calls follow the shape of the dose curve; as a rule, active = well fitted inhibition curve with a large enough effect; inconclusive = small, poorly fitted or top-dose-only effect, or another doubt; inactive = no such curve, though single readings can be large or run the other way. No potency is given beside an inconclusive call; the fits are too rough.

Assay: qHTS Assay for Inhibitors of Hepatitis C Virus (HCV)
Conditions: Huh7.5.1 HCVcc-Cre (HCVcc is cell-culture hepatitis C virus) infection, luciferase reporter, 44 h; activity change, negative = inhibition: at 41.8 µM (top of the series) unless noted
Method in brief: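 Seed cells (1,000/well) for 4 h; treat with compound and infect with HCVcc-Cre, moi about 0.5. Incubate 44 h, then detect luciferase activity.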
% is scaled to controls: 0 for no effect and ±100 for the full control effect; potency is read from the fitted curve at half-maximal effect; tags tell the direction and shape of the fitted curve.

| Structure (SMILES) | Potency | activity change, negative = inhibition |
| --- | --- | --- |
| Cc1[nH]c(C)c(C(=O)/C=C/c2ccc([N+](=O)[O-])cc2)c1C | inconclusive [inhibitor, single point] | – |
| COc1ccccc1NC(=O)c1c[nH]c2ccccc12 | inconclusive [inhibitor, single point] | – |
| CCOc1ccc(/C=C2/SC(=S)N(CCC(=O)Nc3ccc(C(=O)O)cc3)C2=O)cc1 | – | inactive: 17.7% |
| CC(C)C[C@H]1CNC(=S)N1CC1CCN(CC2CCC(C(C)(C)C)CC2)CC1 (stereo not given in full) | inconclusive [inhibitor, full curve] | – |
| CC(=O)Cc1nsc(Nc2ccc3c(c2)OCCO3)n1 | – | inactive: -12.9% |
| O=C(Nc1nc(-c2ccncc2)cs1)c1ccc(S(=O)(=O)N2CCOCC2)cc1 | – | inactive: -21.7% |
| O=C(/C=C/Nc1ccc(Cc2ccc(N/C=C/C(=O)C(F)(F)F)cc2)cc1)C(F)(F)F | – | inactive: -14.8% |
| Cc1ccc(C(=O)N2CCCC(C(=O)c3ccc(Cl)cc3C)C2)cn1 (stereo not given) | – | inactive: -8.47% |
| COc1cccc(C(=O)Nc2c(F)cccc2F)c1 | inconclusive [inhibitor, single point] | – |
| CC(C)c1ccc(CCNC(=O)CSC(=S)N2CCCC2)cc1 | – | inactive: 10.6% |
| C=CCSc1nc2sc3c(c2c(=O)n1CC=C)CCc1ccccc1-3 | inconclusive [inhibitor, partial curve] | – |
| COc1ccc(N2CCN(C(=O)c3ccc(N(C)S(=O)(=O)c4ccc(OC)cc4)cc3)CC2)cc1 | inconclusive [inhibitor, partial curve, poor fit] | – |
| FC(F)(F)c1ccccc1NC(=S)N1CCN(c2ccccn2)CC1 | inconclusive [inhibitor, single point] | – |
| CC1CN(S(=O)(=O)c2cc(C(=O)N(CCc3ccccc3)Cc3ccccc3)ccc2Cl)CC(C)O1 (stereo not given) | inconclusive [inhibitor, single point] | – |
| CCNc1nc(OCCNC(C)=O)nc(N(C)C)n1 | – | inactive: 5.94% |
| OCCCn1c(C2CCCN2c2nc(-c3ccc(F)cc3)cs2)nc2cc(Cl)c(Cl)cc21 (stereo not given) | inconclusive [inhibitor, partial curve] | – |
| CCOc1ccc(C2CC(c3cccc(OC)c3OC)n3nnnc3N2)cc1Cl (stereo not given) | active: 11.2 µM | – |
| O=C(NCCc1ccc(F)cc1)c1cccc(NC(=O)c2ccccc2)c1 | active: 22.4 µM | – |
| CCOC(=O)c1c(-c2ccc(F)cc2)csc1NC(=O)c1c(-c2ccccc2)noc1C | inconclusive [inhibitor, single point] | – |
| CC1Cc2cc(S(=O)(=O)N3CCC(C(=O)Nc4ccccn4)CC3)ccc2N1C(=O)C1CCC1 (stereo not given) | active: 7.94 µM | – |
| C=CCN1C(=O)C(CC(=O)O)SC1=Nc1ccc(C(=O)O)cc1 (stereo not given) | – | inactive: 19.2% |
| CCC(Sc1nc2ccccc2[nH]1)C(=O)Nc1cc(C)on1 (stereo not given) | inconclusive [inhibitor, partial curve] | – |
| Cc1nc2ccc(NC(=O)c3cncc(Br)c3)cc2s1 | inconclusive [inhibitor, partial curve] | – |
| CC1CCCN(c2ccc(/C=C(\C#N)c3nn(-c4ccccc4)c(N)c3C#N)cc2[N+](=O)[O-])C1 (stereo not given) | inconclusive [inhibitor, partial curve] | – |

| Structure (SMILES) | Potency | activity change, negative = inhibition |
| --- | --- | --- |
| COc1ccc(NC(=O)CCC(=O)c2cccs2)cc1S(=O)(=O)Nc1ccccc1Cl | inconclusive [inhibitor, single point] | – |
| Cc1ccc(SCC(=O)Nc2nncs2)cc1 | – | inactive: -2.67% |
| O=C(NCc1ccccc1)C(=O)NCC1OCCN1S(=O)(=O)c1ccc(Br)cc1 (stereo not given) | inconclusive [inhibitor, single point] | – |
| CCc1ccc(C(=O)Nc2ccc(OC)c(S(=O)(=O)N3CCCCC3)c2)cc1 | active: 4.47 µM | – |
| CN(c1cccc(Cl)c1)S(=O)(=O)c1cccc(C(=O)Nc2nc3ccccc3[nH]2)c1 | inconclusive [inhibitor, partial curve] | – |
| CCOC(=O)c1c(NC(=O)CCC(=O)N2CCOCC2)sc2c1CC(C)(C)OC2 | inconclusive [inhibitor, full curve, poor fit] | – |
| CCc1ccc(NC(=O)CSc2nnnn2C)cc1 | – | inactive: -1.9% |
| CC(=O)Nc1ccc(S(=O)(=O)N2CCSc3ccccc32)cc1 | inconclusive [inhibitor, single point] | – |
| O=C(c1ccc(F)cc1Cl)N1CCC2(CC1)OCCO2 | inconclusive [inhibitor, partial curve] | – |
| COc1ccc(CNC(=O)Cc2csc(NC(=O)Nc3ccccc3OC)n2)cc1 | inconclusive [inhibitor, partial curve] | – |
| CCN1CCN(c2cc(C)c3cc(NC(=S)N4CCOCC4)ccc3n2)CC1 | inconclusive [inhibitor, single point] | – |
| CCOCC(=O)N1CCc2ccccc21 | inconclusive [inhibitor, single point] | – |
| NS(=O)(=O)c1ccc(NC(=O)CSc2ccccc2)cc1 | – | inactive: 4.5% |
| C/C(=N/NC(=O)c1cccs1)c1cccc(NC(=O)C2CC2)c1 | inconclusive [inhibitor, single point] | – |
| O=C(CSCc1ccc(F)cc1)N1CCN(c2ccc(F)cc2)CC1 | – | inactive: -18.4% |
| COCCCNc1nc(N)c([N+](=O)[O-])c(Nc2cc(OC)ccc2OC)n1 | – | inactive: -20.2% |
| Cc1ccc(S(=O)(=O)N(C)C)cc1NC(=O)CSc1ccc2c(c1)OCCO2 | inconclusive [inhibitor, full curve, poor fit] | – |
| CCCCCCCCCCCCN1C(=O)CSC1c1cccnc1 (stereo not given) | inconclusive [inhibitor, single point] | – |
| O=[N+]([O-])c1ccc(N2CCN(c3ccc(Cl)nn3)CC2)cc1NC1CC1 | inconclusive [inhibitor, partial curve] | – |
| COc1cc(Cn2c(N)c(C(=O)NCc3ccco3)c3nc4ccccc4nc32)cc(OC)c1OC | inconclusive [inhibitor, single point] | – |
| Nc1ncc(-c2nnnn2-c2ccc(Cl)cc2)c(-c2ccc(Cl)cc2)n1 | inconclusive [inhibitor, partial curve, poor fit] | – |
| Cc1ccccc1NC(=O)COc1ccc(Br)cc1C | – | inactive: -6.2% |
| COc1cc(/C=C2/SC(=S)N(CCC(=O)Nc3ccccc3)C2=O)cc(OC)c1OC | inconclusive [inhibitor, partial curve] | – |
| Cc1cccc(NC(=O)c2ccc(S(=O)(=O)N3CCCC3)cc2)c1C | – | inactive: -3.18% |

| Structure (SMILES) | Potency | activity change, negative = inhibition |
| --- | --- | --- |
| CCSc1nc(-c2ccc(OC)cc2)cc(-c2ccccc2)c1C#N | inconclusive [inhibitor, partial curve] | – |
| CCc1nc(NCC2CCCN2CC)c2nnn(Cc3ccccc3F)c2n1 (stereo not given) | inconclusive [inhibitor, single point] | – |
| C[C@@H]1CN([C@H](C)CO)C(=O)c2cccc(NS(=O)(=O)c3cccs3)c2O[C@H]1CN(C)Cc1ccccc1 | inconclusive [inhibitor, full curve] | – |
| CC(CCCC(C)(C)O)NC(=O)c1ccc2oc(CCc3ccccc3)nc2c1 (stereo not given) | inconclusive [inhibitor, partial curve] | – |
| O=C(NCc1nc2ccccc2[nH]1)C1=C[C@H](C2CCCCC2)C[C@H](OCCCCO)O1 | inconclusive [inhibitor, single point] | – |
| O=C(C[n+]1cccc2ccccc21)c1ccc(Br)cc1 | inconclusive [inhibitor, single point] | – |
| O=C(O)c1cc(-c2ccc(/C=N/Nc3ccc(Cl)cc3)o2)ccc1Cl | – | inactive: 22% |
| Cc1ccc(C(=O)Nc2nc3ccc(Cl)cc3s2)o1 | inconclusive [inhibitor, single point] | – |
| O=C(CSc1nc(-c2ccco2)cc(C(F)(F)F)n1)N1CCN(c2cccc(Cl)c2)CC1 | inconclusive [inhibitor, partial curve, poor fit] | – |
| CCOC(=O)N1CCN(C(=O)CSCC(=O)Nc2nc(-c3ccc(-c4ccccc4)cc3)cs2)CC1 | active: 5.62 µM | – |
| COc1ccc2c(c1)-c1nc(/N=C/c3c(O)ccc4ccccc34)sc1CC2 | active: 12.6 µM | – |
| COc1cc2c(cc1NC(=O)CSc1nnc(Cc3cccs3)n1Cc1ccco1)oc1ccccc12 | active: 2 µM | – |
| O=[N+]([O-])c1ccc(/C=N/NC2=NS(=O)(=O)c3ccccc32)cc1 | – | inactive: 3.18% |
| Cc1ccc(S(=O)(=O)NCC(c2cccnc2)N2CCc3ccccc32)cc1 (stereo not given) | inconclusive [inhibitor, partial curve] | – |
| Cc1cc(OCc2cc(C(=O)N(C)Cc3ccccn3)no2)cc(C)c1Cl | – | inactive: -24.4% |
| COc1ccc(CN2CCN(S(=O)(=O)c3ccc(NC(C)=O)cc3)CC2)cc1 | inconclusive [inhibitor, single point] | – |
| CCOC(=O)c1c(C)oc2ccc(NS(=O)(=O)c3ccc4c5c(cccc35)C(=O)N4)cc12 | inconclusive [inhibitor, full curve, poor fit] | – |
| CC(C)(C)NC(=O)NC(=O)CN1CCN(c2ccc(O)cc2)CC1 | inconclusive [inhibitor, single point] | – |
| CCc1cc2c(=O)n(Cc3ccco3)c(SCc3c(C)noc3C)nc2s1 | active: 10 µM | – |
| CCCCc1ccc(NC(=O)CSc2nc3ncccc3[nH]2)cc1 | inconclusive [inhibitor, full curve] | – |
| CCN(CC)c1ccc(/C=C(\C#N)C(=O)NCc2ccco2)cc1 | – | inactive: -27.5% |
| COc1ccc(-c2cc(-c3ccccc3)n3ncnc3n2)cc1 | inconclusive [inhibitor, single point] | – |
